# Among all 390,000 compounds or so, about 930 (0.24%) were called active. This list was built around the results that the source calls inconclusive (neither active nor inactive); the mix of calls is not that of the screen. Calls come from the whole dose curve; as a rule, active = well fitted activation curve with a large enough effect; inconclusive = small, poorly fitted or top-dose-only effect; inactive = no such curve, though single readings can be large or run the other way. A potency beside an inconclusive call is a rough fit, not a confirmed value.
# Assay: qHTS for Suppressors of FUS Proteinopathy: Primary screen using FUS-linked yeast assay; note: nearly all actives have a fitted effect of over 55% in size;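 for growth rescue (activation): plate controls were DMSO vehicle for no effect and reference control for full effect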
# Conditions: S. cerevisiae FUS-expressing, OD600, 24 h; Potency: growth rescue; growth rescue (activation): at 76.6 µM (top of the series)
# How it was run: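 FUS-expressing yeast, raffinose-pregrown, induced in 2% galactose minimal medium at OD 0.005; compounds in a dilution series, 24hr at 30C. Growth restoration read as absorbance at 600 nm. CP55940 positive control, DMSO negative.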
# Potency is the fitted concentration of half-maximal effect; tags give direction and shape of the fitted curve.
Compound,Potency,growth rescue (activation)
Cc1ccc(NC(=O)CSc2nc(N)cc(=O)[nH]2)cc1S(=O)(=O)N1CCCCCC1,"inconclusive: 25.1 µM [activator, single point]",–
COc1ccccc1CNC(=O)[C@H](C)N1C(=O)N2CCc3c([nH]c4ccccc34)[C@@]2(C)C1=O,"inconclusive: 35.5 µM [activator, single point]",–
CCOC(=O)c1c(C)oc2ccc(N(C(=O)c3ccncc3)S(=O)(=O)c3ccc(F)cc3C)cc12,"inconclusive: 35.5 µM [activator, single point]",–
CO[C@H]([C@H](C)/C=C/N(C)C=O)[C@@H](C)C(=O)CC[C@H](C)[C@H](O)[C@H](C)[C@H]1OC(=O)/C=C/C(C)=C/C[C@H](O)C[C@@H]2C=CC[C@@H](C[C@H](OC)[C@@H](C)[C@@H](OC)C[C@@H](OC)[C@@H]1C)O2,active: 14.1 µM,–
COCC(C)n1c(C)cc(C(=O)COc2ccc(N(C)S(=O)(=O)c3ccc(NC(C)=O)cc3)cc2)c1C (stereo not drawn),"inconclusive: 28.2 µM [activator, single point]",–
CCOC(=O)[C@]12CCCC=C1N(CCC1=CCCCC1)C(=O)[C@H](CC(=O)NCc1ccccc1)C2,"inconclusive: 31.6 µM [activator, single point]",–
O=C1Nc2ccccc2N=C(c2ccccc2)C1Br (stereo not drawn),–,inactive: -0.554%
N/C(=N\OC(=O)c1ccc(Cl)cc1Cl)c1ccc(Cl)cc1,–,inactive: 18.7%
Cc1cc(C(=O)Cn2nc(C(=O)O)c3ccccc3c2=O)c(C)n1-c1ccc(OC(F)F)cc1,"inconclusive: 20 µM [activator, single point]",–
CC(=O)NC(c1cccc(F)c1)c1nc(-c2cnc3ccccc3c2)cs1 (stereo not drawn),–,inactive: 18.9%
CCOC(=O)CSc1nc2cc3c(cc2cc1C#N)OCCO3,–,inactive: -1.32%
O=C(CSC1=Nc2ccccc2C2=NC(Cc3ccccc3)C(=O)N12)Nc1cccc(Cl)c1 (stereo not drawn),"inconclusive: 35.5 µM [activator, single point]",–
COc1ccccc1Cn1c(C2CC(=O)N(c3ccccc3OC)C2)nc2ccccc21 (stereo not drawn),–,inactive: 35.2%
CCOC(=O)c1c(-c2ccccc2)oc2ccc(NS(=O)(=O)c3ccc(C)cc3)cc12,"inconclusive: 22.4 µM [activator, partial curve, poor fit]",–
O=C(Nc1nncs1)C1CC(=O)N(C2CCCC2)C1 (stereo not drawn),–,inactive: 22.1%
N#Cc1cc(-c2ccccc2)oc1/N=C/c1ccccc1O,–,inactive: 22.3%
COc1cc([N+](=O)[O-])ccc1NC(=O)CSc1nnc(C)c(C)n1,"inconclusive: 22.4 µM [activator, partial curve, poor fit]",–
O=c1c2ccccc2nc(-c2ccccc2)n1Cc1ccccc1,–,inactive: 17.8%

# — PubChem BioAssay AID1347120 (National Center for Advancing Translational Sciences (NCATS), 2019)
